Reference: PubChem BioAssay (Tox21)
“And” between values parts separate entries of the source, which are not always exact repeats. Equal values may be shown once. The inconclusive results got no clear call from the source; some entries with a clear call stand among them for comparison. For some assays here: A potency beside an inconclusive call is a rough fit, not a confirmed value. The source made the active and inactive calls. Unless noted, calls follow the shape of the dose curve; as a rule, active = well fitted curve in the direction sought with a large enough effect in the repeat runs; inconclusive = weak or mixed curves; inactive = no such curve, though single readings can be large; an effect the other way counts as inactive or inconclusive.

Test system: not listed separately
Experiment: qHTS assay for small molecule activators of the heat shock response signaling pathway - cell viability counter screen (AID 743209); also: nearly all actives have a fitted effect of over 50% in size; also: potency is read from the fitted curve at half-maximal effect; as to activity change, negative = cytotoxicity: % is scaled to controls: 0 for no effect and ±100 for the full control effect
Conditions: HSE-bla HeLa viability, CellTiter-Glo luminescence, 5 h; activity change, negative = cytotoxicity: at 62.6 µM (top of the series)
How it was run: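 HSE-bla HeLa cells plated overnight, then exposed to Tox21 compounds (23 nL in DMSO) for 5 h at 37 C. After the bla reporter read, CellTiter-Glo was added in the same wells and luminescence read after 30 min at room temperature.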
Tags tell the direction and shape of the fitted curve or compound fluorescence and quenching.

Compound	activity change, negative = cytotoxicity	Potency
CC(C)=CCCC(C)CCOC=O (stereo not given)	inconclusive: -40.9% [cytotoxic]	
CCCCCCOc1ccc(N)cc1		inconclusive: 0.549 µM [rising, partial curve, poor fit]
Cc1nc2sccn2c(=O)c1CCN1CCC(=C(c2ccc(F)cc2)c2ccc(F)cc2)CC1		inconclusive: 5.96 µM [cytotoxic, partial curve, poor fit]

Test system: not listed separately
Experiment: qHTS assay for small molecule activators of the heat shock response signaling pathway (AID 743210; active = well fitted activation curve with a large enough effect in the signal ratio in the repeat runs, with a control signal flat, not every such curve was filed as active; inconclusive = weak or mixed curves; the % refers to the signal ratio; also: potency is read from the fitted curve at half-maximal effect;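 as to activation: HeLa cells with beta-lactamase reporter driven by heat shock elements; % is scaled to controls: 0 for no effect and ±100 for the full control effect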)
Conditions: HeLa HSE-bla reporter, beta-lactamase ratio, 5 h; activation: at 62.6 µM (top of the series) unless noted
How it was run: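 HeLa HSE-bla cells, overnight plating; cpd in DMSO 5 h, 37 C; LiveBLAzer B/G FRET substrate 2.5 h RT; fluorescence intensity read.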

Compound	Potency	activation
CC(C)=CCCC(C)CCOC=O (stereo not given)	inconclusive: 0.693 µM	
CC(C)c1ccc2c(C(C)C)cc(C(C)C)c(S(=O)(=O)O)c2c1		inactive: -0.0731% [at 81.1 µM]
NC(N)=NC(=O)Cc1c(Cl)cccc1Cl	inconclusive: 18.8 µM [activator, partial curve, poor fit]	
Cn1cc[nH]c1=S	inconclusive: 30.9 µM [activator]	
CCCCCCCCCCCCCCCCOS(=O)(=O)O	inconclusive: 30.1 µM [falling, single point]	

Test system: not listed separately
Experiment: qHTS assay to identify small molecule agonists of the peroxisome proliferator-activated receptor delta (PPARd) signaling pathway - cell viability counter screen (AID 743211); also: nearly all actives have a fitted effect of over 55% in size; also: potency is read from the fitted curve at half-maximal effect; as to activity change, negative = cytotoxicity: % is scaled to controls: 0 for no effect and ±100 for the full control effect
Conditions: PPARd-bla HEK293H viability, CellTiter-Glo luminescence, 17 h; activity change, negative = cytotoxicity: at 62.6 µM (top of the series)
How it was run: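 Following 5 h plating at 37 C and 5% CO2, PPARd UAS-bla HEK293H cells took up test compounds for 17 h. Viability was quantified by luminescence 30 min after CellTiter-Glo addition at room temperature.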

Compound	Potency	activity change, negative = cytotoxicity
CN(C)CCOC(c1ccccc1)c1ccccc1	inconclusive: 43.6 µM [cytotoxic, partial curve, poor fit]	
CN(C)CCOCCN(C)C	inconclusive: 13.8 µM [cytotoxic, full curve, poor fit]	
CCCCCCCCOCCCN	active: 49 µM	
NC(N)=NC(=O)Cc1c(Cl)cccc1Cl	inconclusive: 2.66 µM [cytotoxic, partial curve]	
CCC(C)N (stereo not given)		inactive: -3.67%
O=C1O[C@H]([C@@H](O)CO)C(O)=C1O	inactive	
CC(=O)NS(=O)(=O)c1ccc(N)cc1	inactive	
O=C(C1CCCCC1)N1CC(=O)N2CCc3ccccc3C2C1 (stereo not given)	inactive	
CCCCCCCCCCCCCCCCOS(=O)(=O)O	inconclusive: 26.8 µM [cytotoxic, single point]	

Molecular target: Peroxisome proliferator-activated receptor delta (Homo sapiens) (UniProt Q03181)
Experiment: qHTS assay to identify small molecule agonists of the peroxisome proliferator-activated receptor delta (PPARd) signaling pathway (AID 743212; calls by dose curve; also: potency is read from the fitted curve at half-maximal effect)
Conditions: HEK293H PPARd-UAS-bla, beta-lactamase FRET ratio, 17 h; activation: at 62.6 µM (top of the series) unless noted
How it was run: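 HEK293H PPARd-bla cells; 5 h preincubation 37 C/5% CO2; compound (DMSO) 37 C; LiveBLAzer B/G FRET substrate 2 h RT; fluorescence intensity.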

Sequence of UniProt Q03181 (Q03181 whole entry, looked up): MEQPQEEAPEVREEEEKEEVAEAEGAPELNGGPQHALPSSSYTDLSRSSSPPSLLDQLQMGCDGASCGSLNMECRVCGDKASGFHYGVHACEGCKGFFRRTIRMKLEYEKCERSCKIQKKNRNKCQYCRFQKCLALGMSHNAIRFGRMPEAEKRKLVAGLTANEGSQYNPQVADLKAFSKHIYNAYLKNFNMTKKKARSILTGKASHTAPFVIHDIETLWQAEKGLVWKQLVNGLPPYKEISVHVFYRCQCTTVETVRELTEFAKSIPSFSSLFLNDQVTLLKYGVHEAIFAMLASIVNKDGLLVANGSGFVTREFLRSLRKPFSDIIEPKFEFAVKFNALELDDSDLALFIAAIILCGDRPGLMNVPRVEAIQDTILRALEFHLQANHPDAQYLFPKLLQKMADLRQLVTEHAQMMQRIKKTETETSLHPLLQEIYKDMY

Compound	activation	Potency
CCC(C)N (stereo not given)	inactive: 6.98%	
Cn1cc[nH]c1=S	inconclusive: -0.773%	
O=C(O)[C@H](O)[C@@H](O)[C@H](O)[C@H](O)CO		inconclusive: 3.32 µM
CC/C=C\CCOC(C)OCC (stereo not given)	inactive: 0.917%	
O=C(C1CCCCC1)N1CC(=O)N2CCc3ccccc3C2C1 (stereo not given)	inconclusive: -3.94%	

Test system: not listed separately
Experiment: qHTS assay to identify small molecule antagonists of the peroxisome proliferator-activated receptor delta (PPARd) signaling pathway - cell viability counter screen (AID 743213); also: nearly all actives have a fitted effect of over 50% in size; also: potency is read from the fitted curve at half-maximal effect
Conditions: PPARd-bla HEK293H viability, CellTiter-Glo luminescence, 17 h; viability change, negative = cytotoxic: at 62 µM (top of the series) unless noted
How it was run: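 In this counter screen, HEK293H cells carrying a UAS-beta-lactamase reporter are co-treated with test compounds and 300 nM L165041 (final) for 17 h at 37 C; cell viability is quantified by CellTiter-Glo luminescence.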

Compound	viability change, negative = cytotoxic	Potency
CC(C)=CCCC(C)CCOC=O (stereo not given)	inconclusive: -31.5% [cytotoxic]	
CN(C)CCOC(c1ccccc1)c1ccccc1		inconclusive: 49 µM [cytotoxic, partial curve, poor fit]
CN(C)CCOCCN(C)C		inconclusive: 17.7 µM [cytotoxic, full curve, poor fit] and inconclusive: 1.5 nM [cytotoxic]
CCCCCCCCOCCCN		active: 24.5 µM
NC(N)=NC(=O)Cc1c(Cl)cccc1Cl	inactive: -14.7%	
Cc1nc2sccn2c(=O)c1CCN1CCC(=C(c2ccc(F)cc2)c2ccc(F)cc2)CC1		inconclusive: 33.5 µM [cytotoxic, single point]
Cn1cc[nH]c1=S		inconclusive: 0.106 µM [cytotoxic, single point]
CC/C=C\CCOC(C)OCC (stereo not given)	inactive: -4.91%	
F[B-](F)(F)F		inconclusive: 12.4 µM [cytotoxic, full curve, poor fit]
CCCCCCCCCCCCCCCCOS(=O)(=O)O		inconclusive: 26.8 µM [cytotoxic, single point]

Molecular target: Peroxisome proliferator-activated receptor delta (Homo sapiens) (UniProt Q03181)
Experiment: qHTS assay to identify small molecule antagonists of the peroxisome proliferator-activated receptor delta (PPARd) signaling pathway (AID 743215; active = well fitted inhibition curve with a large enough effect in the signal ratio in the repeat runs, not every such curve was filed as active; inconclusive = weak or mixed curves, or effect the other way; inactive = no such curve, though single readings can be large or run the other way; the % refers to the signal ratio;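 also: cells stimulated with agonist L165041 at 300 nM final during compound exposure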; also: potency is read from the fitted curve at half-maximal effect)
Conditions: HEK293H PPARd-UAS-bla, beta-lactamase FRET ratio, antagonist, 17 h; ratio activity, negative = inhibition: at 62 µM (top of the series) unless noted
How it was run: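 PPARd-bla HEK293H cells (UAS-bla reporter) preincubated 5 h, then given compound plus 300 nM final L165041 agonist for 17 h at 37 C. Beta-lactamase activity read by LiveBLAzer B/G FRET substrate fluorescence after 2 h at room temperature.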

Compound	Potency	ratio activity, negative = inhibition
Cc1nc2sccn2c(=O)c1CCN1CCC(=C(c2ccc(F)cc2)c2ccc(F)cc2)CC1	inconclusive: 33.5 µM [fluorescent, partial curve, poor fit]	
N=c1nc(N2CCCCC2)cc(N)n1O		inactive: 2.25%
Cn1cc[nH]c1=S		inconclusive: 4.6% and inconclusive: 3.71%
CC(=O)NS(=O)(=O)c1ccc(N)cc1	inconclusive: 19.5 µM [rising, partial curve, poor fit]	
O=C(C1CCCCC1)N1CC(=O)N2CCc3ccccc3C2C1 (stereo not given)		inconclusive: 20.4%

Molecular target: Bile acid receptor (Homo sapiens) (UniProt Q96RI1)
Experiment: qHTS assay to identify small molecule antagonists of the farnesoid-X-receptor (FXR) signaling pathway (AID 743217; active = well fitted inhibition curve with a large enough effect in the signal ratio in the repeat runs, not every such curve was filed as active; inconclusive = weak or mixed curves, or effect the other way; inactive = no such curve, though single readings can be large or run the other way; the % refers to the signal ratio; also: % is scaled to controls: 0 for no effect and ±100 for the full control effect)
Conditions: HEK293T FXR-UAS-bla, beta-lactamase ratio, CDCA-stimulated, 16 h; activity change, negative = inhibition: at 62.6 µM (top of the series) unless noted
How it was run: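 FXR-UAS-bla HEK 293T cells (beta-lactamase reporter) given compound plus chenodeoxycholic acid (50 uM final), 16 h at 37C. LiveBLAzer B/G FRET substrate added for 2 h at room temperature; fluorescence read.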

Sequence of UniProt Q96RI1 (Q96RI1 whole entry, looked up): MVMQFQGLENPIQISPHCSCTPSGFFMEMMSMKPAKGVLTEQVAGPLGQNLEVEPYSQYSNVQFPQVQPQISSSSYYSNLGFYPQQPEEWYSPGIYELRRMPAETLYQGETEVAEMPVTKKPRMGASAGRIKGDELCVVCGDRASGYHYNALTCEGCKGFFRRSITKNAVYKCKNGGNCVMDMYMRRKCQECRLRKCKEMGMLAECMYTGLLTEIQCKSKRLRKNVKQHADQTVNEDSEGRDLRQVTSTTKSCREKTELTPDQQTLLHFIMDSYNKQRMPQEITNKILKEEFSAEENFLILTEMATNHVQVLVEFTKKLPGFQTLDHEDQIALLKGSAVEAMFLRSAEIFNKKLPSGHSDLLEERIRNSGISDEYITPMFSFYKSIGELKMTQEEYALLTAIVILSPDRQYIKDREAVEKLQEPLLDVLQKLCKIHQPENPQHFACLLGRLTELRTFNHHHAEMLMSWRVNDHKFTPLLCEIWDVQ

Compound	activity change, negative = inhibition	Potency
CC(C)c1ccc2c(C(C)C)cc(C(C)C)c(S(=O)(=O)O)c2c1	inactive: 9.09% [at 81.1 µM]	
CCCCCCOc1ccc(N)cc1	inconclusive: 6.75%	
O=C(O)Cc1c[nH]c2ccccc12		inactive
CCC(C)N (stereo not given)	inconclusive: -0.715%	
N=c1nc(N2CCCCC2)cc(N)n1O	inactive: 0.224%	
Cc1ccccc1N=O	inactive: 1.45% [at 81.1 µM]	
CCCCCCCCCCCCCCCCOS(=O)(=O)O	inconclusive: 8.43%	

Test system: not listed separately
Experiment: qHTS assay to identify small molecule agonists of the farnesoid-X-receptor (FXR) signaling pathway - cell viability counter screen (AID 743218); also: potency is read from the fitted curve at half-maximal effect; nearly all actives have a fitted effect of over 45% in size
Conditions: FXR-bla HEK293T viability, CellTiter-Glo luminescence, 16 h; viability change, negative = cytotoxic: at 62.6 µM (top of the series) unless noted
How it was run: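 FXR-UAS-bla HEK 293T cells exposed to compounds for 16 h at 37C. Cytotoxicity read in the same wells by CellTiter-Glo luminescence after 30 min at room temperature, following the beta-lactamase FRET read.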

Compound	Potency
CN(C)CCOC(c1ccccc1)c1ccccc1	inconclusive: 34.7 µM [cytotoxic, partial curve]
CCCCCCCCOCCCN	inconclusive: 61.6 µM [cytotoxic, single point]
CCCCCCOc1ccc(N)cc1	inconclusive: 0.389 µM [rising, partial curve, poor fit]
O=C(O)Cc1c[nH]c2ccccc12	inconclusive: 0.0035 µM [rising, full curve, poor fit]
Cc1nc2sccn2c(=O)c1CCN1CCC(=C(c2ccc(F)cc2)c2ccc(F)cc2)CC1	active: 26.6 µM
CCCN1C=CN(C)C1	inconclusive: 34.8 µM [rising, partial curve, poor fit]
